The text below walks through data of the supplement of paper PMC4967469.

As usually defined, the IC50 is the concentration at which inhibition is half-maximal.

By IC50 is meant the dose at which the fit gives 50% viability; where the fit passes the top or lowest dose, that dose stands as a limit. AUC is the area under the same curve over the 256-fold range up to the top dose, as a fraction; the more sensitive the line, the further below 1. An inferred top dose comes from the curve model; the source does not state it. Bounds are passed on as bounds.

Compound in this test: CCOc1cc2ncc(C#N)c(Nc3ccc(F)c(Cl)c3)c2cc1NC(=O)/C=C/CN(C)C [EKB-569]
In words: Viability of human cancer cell lines after 72 h of drug (GDSC screen). To be noted: top dose inferred. The protocol:
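Human cancer cell lines in 384-well plates, medium with 10% serum, drug for 72 h over a 256-fold dose range (nine 2-fold or five 4-fold steps up to the top dose). Adherent lines were fixed and stained with the nucleic acid dye Syto60, suspension lines read with resazurin; signal relative to control wells, capped at 0 and 100%. One two-parameter sigmoid per drug and line, fitted in a mixed model over all curves with the slope shared within a line.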
For the cell line “COLO-668 (small cell lung carcinoma, adherent, top dose 2.5 µM)”, the AUC worked out at 0.981 and the IC50 is > 2.5 µM.

As to “NCI-H510A (small cell lung carcinoma, semi-adherent, top dose 2.5 µM)”, the AUC is 0.99 and the half-maximal inhibitory concentration (IC50) is > 2.5 µM.

For the cell line “RC-K8 (B-cell lymphoma, suspension, top dose 2.5 µM)”, the AUC turned out to be 0.993 and the IC50 is > 2.5 µM.

Consider “647-V (bladder, adherent, top dose 2.5 µM)”, for which the AUC is 0.823 and the half-inhibitory concentration (IC50) is 1.48 µM.

In the case of “RXF393 (kidney, adherent, top dose 2.5 µM)”, the AUC is 0.885 and the IC50 is > 2.5 µM.

Consider “HuCCT1 (biliary tract, adherent, top dose 2.5 µM)”, for which the AUC was determined as 0.863 and the IC50 is > 2.5 µM.

Turning to “HD-MY-Z (Hodgkin lymphoma, adherent, top dose 2.5 µM)”, the AUC stood at 0.768 and the half-maximal inhibitory concentration (IC50) is 0.938 µM.

Consider “451Lu (melanoma, adherent, top dose 2.5 µM)”, for which the AUC came out at 0.977 and the 50% inhibitory concentration (IC50) is > 2.5 µM.

For the cell line “MKN28 (stomach, adherent, top dose 2.5 µM)”, the AUC stood at 0.921 and the half-maximal inhibitory concentration (IC50) is > 2.5 µM.

As to “HCC1143 (breast, adherent, top dose 2.5 µM)”, the AUC turned out to be 0.845 and the IC50 was > 2.5 µM.

Turning to “LB373-MEL-D (melanoma, adherent, top dose 2.5 µM)”, the AUC turned out to be 0.984 and the IC50 is > 2.5 µM.

For the cell line “SW13 (adrenal gland, adherent, top dose 2.5 µM)”, the AUC stood at 0.961 and the concentration for half-maximal inhibition (IC50) is > 2.5 µM.

For the cell line “NCI-H82 (small cell lung carcinoma, suspension, top dose 2.5 µM)”, the AUC amounted to 0.99 and the IC50 was > 2.5 µM.

As for “KMS-11 (myeloma, suspension, top dose 2.5 µM)”, the AUC was 0.991 and the IC50 was > 2.5 µM.

On to “NB12 (neuroblastoma, adherent, top dose 2.5 µM)”, for which the AUC worked out at 0.87 and the IC50 was > 2.5 µM.

Consider “NH-12 (neuroblastoma, adherent, top dose 2.5 µM)”, for which the AUC is 0.938 and the IC50 is > 2.5 µM.

On to “SNB75 (glioma, adherent, top dose 2.5 µM)”, for which the AUC stood at 0.96 and the IC50 was > 2.5 µM.

With “GT3TKB (stomach, adherent, top dose 2.5 µM)”, the AUC was 0.986 and the half-maximal inhibitory concentration (IC50) was > 2.5 µM.

Consider “PF-382 (T-cell lymphoblastic leukaemia, suspension, top dose 20 µM)”, for which the AUC stood at 0.208 and the IC50 came to 0.2 µM.

“IST-MEL1 (melanoma, adherent, top dose 2.5 µM)”: the AUC turned out to be 0.88 and the IC50 is > 2.5 µM.

With “CADO-ES1 (Ewing sarcoma, suspension, top dose 2.5 µM)”, the AUC stood at 0.874 and the IC50 was > 2.5 µM.

With “DG-75 (Burkitt lymphoma, suspension, top dose 2.5 µM)”, the AUC came to 0.971 and the 50% inhibitory concentration (IC50) is > 2.5 µM.

As to “TOV-21G (ovary, adherent, top dose 2.5 µM)”, the AUC was 0.817 and the half-inhibitory concentration (IC50) turned out to be 1.56 µM.

With “HGC-27 (stomach, adherent, top dose 2.5 µM)”, the AUC amounted to 0.973 and the IC50 is > 2.5 µM.

As to “SK-N-AS (neuroblastoma, adherent, top dose 2.5 µM)”, the AUC was determined as 0.927 and the half-maximal inhibitory concentration (IC50) was > 2.5 µM.

On to “DOK (head and neck, adherent, top dose 2.5 µM)”, for which the AUC is 0.794 and the half-inhibitory concentration (IC50) came to 1.89 µM.

Consider “P31-FUJ (acute myeloid leukaemia, suspension, top dose 2.5 µM)”, for which the AUC came out at 0.971 and the IC50 is > 2.5 µM.
